Residue numbers refer to the chain shown, from its start. These are yes or no findings as the source states them, for the method shown. Some binding calls cover weakened binding; strength is not graded here.
T1: Mutant-1 human BCMA protein-mouse Fc (human)
T1 construct: also called mutant-1 human BCMA-mouse Fc (17G-18G); mutant-1 BCMA protein
T1 chain: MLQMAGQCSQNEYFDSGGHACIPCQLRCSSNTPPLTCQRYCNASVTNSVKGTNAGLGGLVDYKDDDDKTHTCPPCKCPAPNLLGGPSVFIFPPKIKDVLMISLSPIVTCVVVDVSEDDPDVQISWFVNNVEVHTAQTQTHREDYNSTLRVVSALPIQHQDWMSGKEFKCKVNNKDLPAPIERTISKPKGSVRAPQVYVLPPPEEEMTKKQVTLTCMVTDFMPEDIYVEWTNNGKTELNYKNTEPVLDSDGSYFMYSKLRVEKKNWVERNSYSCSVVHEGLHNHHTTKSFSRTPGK

The chains behind the UniProt entries cited, without tags or fusion partners. Residues count along the entry.
UniProt O88472, residues 1-49: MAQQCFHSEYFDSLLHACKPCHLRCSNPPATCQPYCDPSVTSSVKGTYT

T2: Mutant-2 human BCMA protein-mouse Fc (human)
T2 construct: also called mutant-2 human BCMA-mouse Fc (del32-35G); mutant-2 BCMA protein
T2 chain: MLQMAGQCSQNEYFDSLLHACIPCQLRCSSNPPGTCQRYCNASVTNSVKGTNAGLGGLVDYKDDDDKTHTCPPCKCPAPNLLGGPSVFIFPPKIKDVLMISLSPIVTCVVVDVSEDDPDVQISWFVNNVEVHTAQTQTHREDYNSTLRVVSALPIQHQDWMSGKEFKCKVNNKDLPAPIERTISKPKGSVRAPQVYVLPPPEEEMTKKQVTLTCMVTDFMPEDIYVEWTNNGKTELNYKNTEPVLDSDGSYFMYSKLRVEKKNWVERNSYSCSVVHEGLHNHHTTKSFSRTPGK

T3: Wild type human BCMA protein-mouse Fc (human)
T3 construct: also called wild type human BCMA-mouse Fc; wild type BCMA protein
T3 chain: T1 chain with G17L, G18L

T4: BCMA on MM1R cells (human, UniProt Q02223)
T4 construct: full length, on the surface of MM1R multiple myeloma cells; also called MM1R multiple myeloma cell line
T4 sequence (receptor, looked up): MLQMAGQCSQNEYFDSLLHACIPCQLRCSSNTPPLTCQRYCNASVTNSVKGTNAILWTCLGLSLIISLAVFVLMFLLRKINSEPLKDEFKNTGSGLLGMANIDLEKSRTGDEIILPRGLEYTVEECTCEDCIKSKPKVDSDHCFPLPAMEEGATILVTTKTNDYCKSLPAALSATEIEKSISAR

B1: BC4C9 antibody (antibody, V domains shown)
VH: EVQLVQSGAEVKKPGASVKVSCKAFGYTFTSYDINWVRQATGQGLEWMGWMNPNSGNTGYAQKFQGRVTMTRNTSISTAYMELSSLRSEDTAVYYCASGLGEWGQGTLVTVSS
VL: QSVLTQPASVSGSPGQSVTISCTGTSSDVGGYNYVSWYQQHPGKAPKLMIYDVSKRPSGVSNRFSGSKSGNTASLTISGLQAEDEADYYCISYSSSSTFYVFGTGTKVTVL
B2: Bluebird C11D5 antibody (BB anti-BCMA Ab) (antibody, V domains shown)
VH: QIQLVQSGPELKKPGETVKISCKASGYTFTDYSINWVKRAPGKGLKWMGWINTETREPAYAYDFRGRFAFSLETSASTAYLQINNLKYEDTATYFCALDYSYAMDYWGQGTTLTVSS
VL: DIVLTQSPASLAMSLGKRATISCRASESVSVIGAHLIHWYQQKPGQPPKLLIYLASNLETGVPARFSGSGSGTDFTLTIDPVEEDDVAIYSCLQSRIFPRTFGGGTKLEIK
notes: Comparator anti-BCMA antibody; also called BB C11D5; Bluebird antibody
B3: BCA7-2C5 antibody (antibody, V domains shown)
VH: EVQLVESGGGLVKPGGSLRLSCAASGFTSSTAWMSWVRQAPGKGLEWVGRIKSKSDGGTTDYAAPVKGRFTISRDDSKNTLFLQMNSLKTEDTAVYYCAKGGGTYGYWGQGTTVTVSS
VL: QSALTQPASVSGSPGQSVTISCTGTSSAHGGHYYVSWYQQHPGKAPKLMIYDVSNRPSGVSNRFSGSKSGNTASLTISGLQAEDEADYYCGSYTSSGSYVFGTGTKLTVL
B4: BCA7-2D8 antibody (antibody, V domains shown)
VH: B3 VH
VL: B3 VL with A3V, A28S, H29I, G31D, H32S, K106T
B5: BCA7-2E1 antibody (antibody, V domains shown)
VH: B3 VH
VL: B3 VL with A28D, H29G, Y33T, G59W
notes: also called BCA-2E1
B6: GSK J6M0 antibody (GSK anti-BCMA Ab) (antibody, V domains shown)
VH: QVQLVQSGAEVKKPGSSVKVSCKASGGTFSNYWMHWVRQAPGQGLEWMGATYRGHSDTYYNQKFKGRVTITADKSTSTAYMELSSLRSEDTAVYYCARGAIYDGYDVLDNWGQGTLVTVSS
VL: DIQMTQSPSSLSASVGDRVTITCSASQDISNYLNWYQQKPGKAPKLLIYYTSNLHSGVPSRFSGSGSGTDFTLTISSLQPEDFATYYCQQYRKLPWTFGQGTKLEIK
notes: Comparator anti-BCMA antibody; captured by anti-human Fc in SPR, so it carries a human Fc; also called GSK antibody

Experiments:
[1] = biological target: T1, Mutant-1 human BCMA protein-mouse Fc; test: bio-layer interferometry, antibody (100 nM) on AR2G sensor, BCMA-mouse Fc in solution
[2] = biological target: his-tagged cynomolgus BCMA protein (ACROBiosystems, catalog # BCA-052H7) (cynomolgus); test: ELISA, his-tagged BCMA on Ni-NTA plate at 2 µg/mL, antibody at 20 µg/mL
[3] = biological target: T2, Mutant-2 human BCMA protein-mouse Fc; test: bio-layer interferometry, antibody (100 nM) loaded on AR2G sensor, BCMA-mouse Fc in solution
Description: (§1) The results of the protein-protein binding assays described in Example 8 were used to design an epitope mapping assay using bio-layer interferometry. Various anti-BCMA antibodies (2C5, 2E1, 4C9, 6G8, Bluebird C11D5, GSK J6M0, or isotype control) (100 nM) were loaded onto AR2G sensors and reacted with buffer or one of three types of human BCMA proteins including: including: wild type human BCMA-mouse Fc (SEQ ID NO:5), mutant-1 human BCMA-mouse Fc (double mutation 17G-18G; SEQ ID NO:6), or mutant-2 human BCMA-mouse Fc (mutation del32-35G; SEQ ID NO:7).

[4] = biological target: T3, Wild type human BCMA protein-mouse Fc; test: as above
Description: as §1

[5] = biological target: his-tagged mouse BCMA protein (ACROBiosystems, catalog # BCA-M52H3) (mouse) (UniProt O88472); test: SPR, his-tagged mouse BCMA; KD only in the figure
[6] = biological target: T3, Wild type human BCMA protein-mouse Fc; test: bio-layer interferometry, antibody coupled to AR2G sensor, human BCMA-mouse Fc at 2 ug/mL
[7] = biological target: his-tagged human BCMA protein (ACROBiosystems, catalog # BCA-H522y-100 ug) (human) (UniProt Q02223); test: SPR, his-tagged human BCMA as analyte
BCMA on MM1R cells = biological target: T4, BCMA on MM1R cells; test: flow cytometry on MM1R cells, 5x serial dilution, FITC goat anti-human IgG F(ab')2, GeoMean BL1-H
Description: Flow cytometry was used to test antibody binding to multiple myeloma cell line MM1R, using various anti-BCMA antibodies (5× serial dilution) and 80,000 cells per well. The secondary antibody was FITC AffiniPure FAB2 fragment goat anti-human IgG (H+L) (from Jackson Immuno Research). […] A BL-1 detector (IntelliCyt iQue Screener Plus) which detects at 530 nm was used. The geometric mean is reported.

[8] = biological target: his-tagged human BCMA protein (ACROBiosystems, catalog # BCA-H522y-100 ug) (human) (UniProt Q02223); test: ELISA, his-tagged BCMA on Ni-NTA plate at 2 µg/mL, antibody at 20 µg/mL
[9] = biological target: his-tagged mouse BCMA protein (ACROBiosystems, catalog # BCA-M52H3) (mouse) (UniProt O88472); test: as above
[10] = biological target: his-tagged human BCMA protein (ACROBiosystems, catalog # BCA-H522y-100 ug) (human) (UniProt Q02223); test: SPR, his-tagged human BCMA; KD only in the figure
[11] = biological target: his-tagged cynomolgus BCMA protein (ACROBiosystems, catalog # BCA-052H7) (cynomolgus); test: SPR, his-tagged cynomolgus BCMA; KD only in the figure
[12] = biological target: T2, Mutant-2 human BCMA protein-mouse Fc; test: bio-layer interferometry, antibody (100 nM) on AR2G sensor, BCMA-mouse Fc in solution

Binder	binding [1]	binding [2]	binding [7]	binding [11]	further results
B1	no binding	–	–	–	–
B2	–	binds	–	–	–
B3	no binding	binds	binds	binds	binding [3]: binds; binding [4]: binds; binding [5]: binds; binding [6]: binds; binding (BCMA on MM1R cells): binds; binding [8]: binds; binding [9]: binds; binding [10]: binds
B4	–	–	binds	–	–
B5	no binding	binds	–	binds	–
B6	–	binds	–	–	binding [12]: no binding
